# PubChem BioAssay AID434955 (Southern Research Specialized Biocontainment Screening …, 2010)
# The other results are listed elsewhere or left out. These are further read-outs of the screen, such as a control signal, another cell line or another target. No call is given for them. Most of these compounds were active or inconclusive in the main read-out, so they are no random draw.
# Test: beta-lactam sensitization of Mtb H37Rv, H37Rv (AID 434955);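 further: growth measured after seven days incubation then overnight dye step; 0% = bacteria only wells and 100% = bacteria with antibiotic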
# Conditions: M. tuberculosis H37Rv growth with meropenem, percent inhibition; measured here: primary screen without meropenem; at 25 µM
row,Structure (SMILES),inhibition
1,COc1cc2c(cc1OC)C(c1ccccc1)N(C(=O)c1ccco1)CC2 (centres undefined),7.12%
2,Cc1cccc(N2CCN(CC3CCCCC3)CC2)c1C,28.8%
3,O=C1c2ccccc2C(=O)N1Cc1nc(-c2ccccc2)no1,6.13%
4,COC(=O)c1sccc1NC(=O)COc1ccc(Cl)cc1Cl,1.18%
5,CCOC(=O)c1cc(C(=O)Nc2ccc(S(=O)(=O)Nc3ccc(OC)cc3)cc2)nn1C,32.8%
6,CCOC(=O)Cc1nc2ccccc2[nH]1,39%
7,CCOC(=O)N1CCN(CC(=O)Nc2nnc(C(F)(F)F)s2)CC1,55%
8,COc1ccc(CCNC(=O)c2cc(COc3c(F)cccc3F)on2)c(OC)c1,-1.1%
9,Cc1nn2c(=O)cc(COC(=O)c3ccc(NC(=O)C(C)(C)C)cc3)nc2s1,0.55%
10,COc1cc(CN2CCc3ccc(NC(=O)CCc4ccccc4OC)cc3C2)ccc1O,1.88%
11,Cn1c(=O)[nH]c(=O)c2c1nc(Br)n2CCCCSc1nc2ccccc2o1,-10%
12,O=C(Nc1ccnn1C1CCN(Cc2ccc(O)c(Cl)c2)CC1)C1CCCC1,1.52%
13,CC(=O)Nc1ccc(C(=O)NC(C)c2ccc(-n3ccnc3)cc2)cc1 (centres undefined),-1.32%
14,CC(C)(C)c1ccc(OCC(=O)N/N=C/c2cc(Br)ccc2OC(=O)c2ccco2)cc1,2.71%
15,O=C(CSc1nnc(CNC(=O)c2ccccc2)o1)c1ccccc1,5.12%
16,CCOC(=O)c1cn(CC(=O)Nc2ccc(CC)cc2)nn1,3.31%
17,Clc1ccc(Cl)c2sc(N3CCCC3)nc12,7.83%
18,Nc1nc(NCCc2ccccc2)nc(NCc2ccccc2)c1[N+](=O)[O-],3.69%
19,CN1CCN(c2oc(-c3ccccc3F)nc2S(=O)(=O)c2ccc(Cl)cc2)CC1,18.2%
20,Cc1c(NC(=O)Nc2ccccc2)cccc1[N+](=O)[O-],-7.43%
21,COc1cccc(N2C(=O)CC(N3CCC(C(N)=O)(N4CCCCC4)CC3)C2=O)c1 (centres undefined),-11.2%
22,Cc1ccc(C)c(N2CCN(CC3CC=CCC3)CC2)c1 (centres undefined),-2.1%
23,O=C(NC(=S)Nc1ccc(Cl)cc1Cl)C1CC1,14.3%

row,Structure (SMILES),inhibition
1,COCCn1c(COc2cccc(OC)c2)nnc1SCC(=O)N1CCOCC1,-3.74%
2,S=C(Nc1ccc(Cl)cc1)c1nc2ccccc2s1,40.5%
3,O=C(COC(=O)Cc1ccc(S(=O)(=O)N2CCCCC2)s1)Nc1ccc2c(c1)OCO2,32.2%
4,CC1CCC(NC(=O)CCS(=O)(=O)c2ccc3c(c2)CCN3C(=O)C2CC2)CC1 (centres undefined),-2.67%
5,CC(=O)c1ccc(OCCCC(=O)Nc2cc(Cl)ccc2-n2cncn2)cc1,4.54%
6,Cc1ccc(CSc2nnc(-c3ccncc3)n2CC2CCCO2)cc1 (centres undefined),1.32%
7,CCCOc1ccc(-c2nnn(CC(=O)OCC)n2)cc1,96.5%
8,CCc1ccc(-c2nc(CN3CCC(C(=O)NCCc4ccc(OC)c(OC)c4)CC3)c(C)o2)cc1,98.1%
9,Cc1ccc(CN2CCCCC2C(=O)Nc2ccc(Oc3cccnc3)cc2)o1 (centres undefined),-1.87%
10,COC(=O)c1ccc(COc2ncnc3c(Cl)cc(Cl)cc23)o1,-5.9%
11,C/C(=N\NC(=O)c1cccc(Cl)c1)c1cccc(NC(=O)C(C)C)c1,-2.79%
12,CC(=O)Nc1ccc(C(=O)NCC2(N3CCCCC3)CCCCC2)cc1,-11.9%
13,CCC(C)c1ccccc1OCCn1ccnc1 (centres undefined),8.01%
14,CC(Oc1ccccc1F)C(=O)NC1CCS(=O)(=O)C1 (centres undefined),-3.29%
15,CC(=O)[C@@H]1[C@@H]2C(=O)N(c3ccc(F)c(Cl)c3)C(=O)[C@@H]2C2c3ccccc3C=CN21 (some centres undefined),-1.71%
16,COc1ccc(S(=O)(=O)NCCC(=O)NCc2ccc(F)cc2)cc1,-8.27%
17,CC(C)(C)C(=O)Nc1ccnn1C1CCN(C(=O)c2ccc(Cl)cc2F)CC1,-1%
18,O=C(NCc1ccc(Cl)cc1)c1ccc(CNc2c(N3CCOCC3)c(=O)c2=O)cc1,11%
19,O=C(Cc1ccc(S(=O)(=O)N2CCOCC2)s1)Nc1ccccc1N1CCCC1,-3.3%
20,O=C(Nc1ccc2c(c1)oc1ccccc12)c1ccncc1,-0.56%
21,CCc1cccc(NC(=O)Cn2cc3c(n2)CCCC3)c1,-6.49%
22,C=CCNC(=O)C1CC(=O)N(c2ccc(OCC(=O)Nc3ccc(OC)cc3)cc2)C1 (centres undefined),0.39%
23,Cc1ccc2c(CN3CCCCC3C)cc(=O)oc2c1 (centres undefined),-1.56%

row,Structure (SMILES),inhibition
1,CCOC(=O)CNC(=O)CSP(=S)(OCC)OCC,-0.02%
2,COC(=O)c1nc(NC(=S)NC(=O)c2cccs2)sc1C,-1.39%
3,Cc1cc(NC(=O)c2ccc3c(c2)C(=O)N(c2cccc(C)c2C)C3=O)no1,2.26%
4,O=C(Nc1ccccc1F)c1ccc2snnc2c1,-9.26%
5,O=[N+]([O-])c1ccc(Nc2nc(N/N=C/c3cccc(F)c3)nc(N3CCCC3)n2)cc1,45.7%
6,COc1ccc(-c2c(-c3ccsc3)oc(=O)c3cc(OC)c(OC)cc23)cc1,73.6%
7,COc1cccc(C2CC(c3ccc(F)cc3)Nc3nc(N)nn32)c1 (centres undefined),-6.39%
8,NC(=O)CC(NC(=O)Cc1ccc(Br)cc1)c1ccc(NC2CCCCCC2)c([N+](=O)[O-])c1 (centres undefined),16.5%
9,O=C1CCCN1CCCNc1ccc(S(=O)(=O)N2CCCCC2)cn1,-8.75%
10,O=C(N1CCOCC1)N1CCCC(c2nc(-c3cccs3)no2)C1 (centres undefined),1.75%
11,CN1CCN(C(=O)N2CCNC2=O)CC1,-3.9%
12,COc1ccc(OCc2cc(C(=O)NCc3cccc(C)n3)no2)c(Cl)c1,-0.45%
13,COc1ccccc1NS(=O)(=O)c1cccc(N2CC(O)=C(c3ccccc3)C2=N)c1,-7.17%
14,CNC(=O)C1CCN(S(=O)(=O)c2c(C)noc2/C=C/c2cccc(OC)c2)CC1,-7.94%
15,COc1ccc2oc(C(=O)OCC(=O)N3C(C)CCCC3C)c(C)c2c1 (centres undefined),-4.54%
16,COc1cc2[nH]c(=O)n(Cc3ccc(C(=O)NCCCN4CCC(C)CC4)cc3)c(=O)c2cc1OC,-2.74%
17,Cc1noc(C)c1CSc1nnc2scc(-c3ccc(Cl)cc3)n12,-2.71%
18,CCOC(=O)CSc1nnc(CNC(=O)c2cccs2)n1CCc1ccccc1,46.3%
19,CC1=Nc2ccccc2/C1=C\c1nc(-c2ccc(F)cc2)oc1O,40.5%
20,CCn1ccnc1CN1CCCCC1C(=O)Nc1ccc(Oc2cccnc2)cc1 (centres undefined),13.6%
21,CCOc1cccc(/C=N/NC(=O)c2ccc3c(c2)OCCO3)c1O,2.81%
22,CN(C)C=Nc1ccc2nc3c(cc2c1)[nH]c1ccccc13,6.83%
23,Cn1c(/C=N/c2nc3ccccc3[nH]2)nc2ccccc21,43.9%
